In PubChem BioAssay AID1240 (Sanford-Burnham Center for Chemical Genomics, 2008):
Screen size: about 50,000 compounds; about 800 (1.6%) showed an effect of 50% or more. The list shows a part of the results.

What follows are compounds tested against Bcl-2-like protein 10 (Homo sapiens) (UniProt Q9HD36) (assay: TR3 peptide-Bcl-B binding displacers, biochemical primary FP assay, phenotype converters (AID 1240;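 note: 0% = Bcl-B with tracer peptide and DMSO and 100% = tracer peptide lacking Bcl-B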)). Settings: GST-Bcl-B / FITC-TR3 peptide fluorescence polarization; stronger effect = higher value; compound at 3.75 mg/L.
UniProt Q9HD36, sequence (Q9HD36 whole entry, looked up): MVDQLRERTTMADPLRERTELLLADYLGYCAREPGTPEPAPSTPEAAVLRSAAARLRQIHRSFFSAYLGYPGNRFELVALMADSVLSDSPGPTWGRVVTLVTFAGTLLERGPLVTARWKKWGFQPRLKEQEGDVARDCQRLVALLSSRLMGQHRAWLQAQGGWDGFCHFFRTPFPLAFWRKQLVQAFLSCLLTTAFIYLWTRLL

Structure (SMILES)	displacement
O=C(NN1C(=O)/C(=C/c2ccc(O)c([N+](=O)[O-])c2)SC1=S)c1ccccc1Cl	-21.5%
Nc1csc(C(c2ccccc2)c2ccccc2)n1	-3%
COc1ccccc1N1CCN(C(=O)CN(c2ccc(Br)cc2)S(=O)(=O)c2ccccc2)CC1	-0.7%
CCOC(=O)C1=C(C)OC(N)=C(C(=O)OCC)C1c1ccccc1[N+](=O)[O-] (stereo not given)	33.2%
CCOc1ccccc1NC(=O)Cc1ccccc1	10.5%
O=C1NC(=O)C(=Cc2ccc(OC(=O)c3cccc([N+](=O)[O-])c3)cc2)C(=O)N1	1.8%
COC(=O)C1=C(C)NC(C)=C(C(=O)OC)C1c1ccc(-c2cccc(Br)c2)o1	8.8%
O=C(N/N=C/c1ccc(Cl)cc1)C(=O)Nc1cccc(Cl)c1	7.1%
CCOC(=O)N1CCN(C(=O)CN2C(=O)c3ccccc3C2=O)CC1	-10%
O=c1c2c(nc3cc(-c4ccc(Cl)cc4)[nH]n13)CCC2	21.6%
Cc1ccc(NC(=O)c2cc3c(C)nn(-c4ccccc4)c3s2)cc1[N+](=O)[O-]	-2.7%
O=C(N(c1cccc(C(F)(F)F)c1)C1C=CS(=O)(=O)C1)C(Cl)(Cl)Cl (stereo not given)	16.6%
Cc1ccc(-c2noc(COc3ccccc3C)n2)cc1	-3.2%
c1ccc(-n2nnnc2SCc2cccc(CSc3nnnn3-c3ccccc3)n2)cc1	-8.8%
CCOC(=O)c1c(N2C(=O)C=CC2=O)sc2c1CCCC2	0.3%
CC1(C)CC(=O)C2=C(C1)N=C1c3ccccc3C(=O)C1C2c1cccc(Cl)c1 (stereo not given)	3.9%
CCOC(=O)c1ccc(NC(=S)NC(NC(=O)CC(C)C)C(Cl)(Cl)Cl)cc1 (stereo not given)	-3.4%
Cc1ccc(-n2[nH]c(C)c(C=Nc3ccc(N(C)C)cc3)c2=O)cc1C	-4.3%
NC(=O)C1CCN(C(=O)c2ccccc2F)CC1	12.8%
O=C1NN(c2cccc(Cl)c2)C(=O)/C1=C/c1ccc2c(c1)OCO2	3.3%
O=[N+]([O-])c1cc(N[C@@H]2O[C@H](CO)[C@@H](O)[C@H](O)[C@@H]2O)ccc1Cl	5.2%
Cc1cc(N2C(=O)NC(=O)/C(=C/c3cc4c(cc3[N+](=O)[O-])OCO4)C2=O)ccc1Br	31.3%
CCOC(=O)c1c(C)nc2sccn12	4.6%
CCNc1nc(NC(C)C)nc(Oc2ccc(C(=O)OC)cc2)n1	5.9%
O=C1/C(=C\c2ccc3c(c2)OCO3)SC(=S)N1c1cccc(C(F)(F)F)c1	12.3%
COC(=O)c1c(C)oc2cc(Br)c(OS(C)(=O)=O)cc12	9.4%
CCc1ccc(OCCNc2cc(N3CCCC3)ccc2[N+](=O)[O-])cc1	5%

Structure (SMILES)	displacement
O=C1C(=O)N(c2cccc([N+](=O)[O-])c2)C(c2ccc3c(c2)OCO3)/C1=C(/O)c1ccccc1 (stereo not given)	-8.4%
CC(C)N(C(=O)c1ccc(-c2nc3ccccc3s2)cc1)C(C)C	7.6%
Cc1ccc(NC(=O)c2ccco2)c([N+](=O)[O-])c1	-2.4%
CCOc1ccc(N2C(=O)NC(=O)/C(=C/c3ccc(-c4cccc(C(=O)O)c4)o3)C2=O)cc1	-13.6%
c1cc(-c2nnc(-c3ccco3)o2)cc(-c2nnc(-c3ccco3)o2)c1	15.8%
O=C1C2C3C=CC(C3)C2C(=O)N1c1cc(Cl)ccn1 (stereo not given)	4%
O=C(O)c1ncc(-c2ccccc2)cn1	7.9%
COc1ccc(C(=O)/C=C\NCC(=O)c2ccccc2)c(OC)c1	2.5%
O=C(O)CSCc1cccc(Br)c1	-1.7%
O=[N+]([O-])c1ccc2nc(N3CCOCC3)sc2c1	-22.8%
O=C(COc1ccc(Cl)cc1Br)NCc1ccco1	-2.4%
Cc1ccccc1C(=O)N/N=C/c1ccc(OCC(=O)N2CCCCC2)cc1	-5.7%
COc1ccc(/C=N/Nc2cc(-c3ccccc3)nc(C)n2)cc1	-9.7%
COc1ccc(N(CC(=O)NCc2ccccn2)S(=O)(=O)c2ccccc2[N+](=O)[O-])c(OC)c1	13.6%
O=[N+]([O-])c1cccc(S(=O)(=O)N2CCOCC2)c1	15.9%
CC12C=CC(C)(O1)C1C(=O)N(c3ccc(Br)cc3)C(=O)C12 (stereo not given)	-6.1%
O=C(CCCC(=O)OCC(F)(F)C(F)F)Nc1ccc(I)cc1	16.7%
O=C1C(=O)N(c2cccc(Cl)c2)C(c2ccccc2[N+](=O)[O-])/C1=C(\O)c1ccccc1 (stereo not given)	0.4%
O=C(O)C1C2CCC(C2)C1C(=O)Nc1nc2ccc(F)cc2s1 (stereo not given)	-8.2%
O=C(Nc1ccc(-c2nc3ccccc3o2)c(O)c1)c1ccc(-c2ccc([N+](=O)[O-])cc2)o1	6.6%
CC(=O)Nc1cccc(NC(=O)c2ccc(Cl)c([N+](=O)[O-])c2)c1	-1.1%
COc1c(Cl)cc(C(=O)Nc2ccc(O)c(-c3nc4cc(C)ccc4o3)c2)cc1Cl	0.4%
COC(=O)C1=C(C)N(c2ccc(F)cc2)C(=O)/C1=C\c1ccc(OCC(=O)NCC2CCCO2)cc1 (stereo not given)	10.9%
CN1C(=O)NC(=O)/C(=C/c2cn(Cc3ccccc3)c3ccccc23)C1=O	-5.3%
O=C(Cc1ccc(Cl)cc1)NNC(=O)c1cccnc1	-6.7%
CCOc1ccc(-c2nc(Cc3c(F)cccc3Cl)no2)cc1	17.2%
O=c1/c(=C\c2ccc(OCc3ccc(Cl)cc3Cl)cc2)sc2nc3ccccc3n12	-20.5%

Structure (SMILES)	displacement
COc1c(Br)cc(Br)cc1/C=N/Nc1nc(N2CCOCC2)nc(N2CCOCC2)n1	4.2%
Cc1cc(NS(=O)(=O)c2ccc(NC(=O)c3cc(Cl)cc(Cl)c3)cc2)no1	11%
CCOc1ccc(N2C(=O)CC(SC(=NCCCO)Nc3ccccc3)C2=O)cc1 (stereo not given)	-2.6%
Cc1c(NC(=O)c2ccc(Br)cc2)cccc1-c1nc2ncccc2o1	-6%
C/C(=N\NC(=O)c1cc(C)[nH]n1)c1ccc(N)cc1	-10%
COc1ccc(C2C3=C(CC(c4ccccc4)CC3=O)Nc3ccccc3N2C(=O)C(C)C)cc1OC (stereo not given)	41.6%
Nc1cccc(Nc2nc(OC(C(F)(F)F)C(F)(F)F)nc(OC(C(F)(F)F)C(F)(F)F)n2)c1	16.9%
COc1ccc(CNC(=O)c2nn3c(c2Cl)NC(c2ccc(C)cc2)CC3C(F)(F)F)cc1 (stereo not given)	-0.6%
Cc1ccc(C(=O)N/C(=C/c2cccnc2)C(=O)N2CCCCCC2)cc1	2.1%
Cc1cc(Cl)ccc1OC(C)C(=O)NCc1ccco1 (stereo not given)	-3.1%
COc1ccc(Cl)cc1NC(=O)c1cccc(N(C)C)c1	-0.1%
CN(Cc1ccccc1)c1nc2ccccn2c(=O)c1C=C1SC(=S)N(CCc2ccccc2)C1=O	0%
CNC(=O)C(=O)Nc1ccc(C(C)C)cc1	6.9%
O=C(O)C(Cc1ccccc1)N1C(=O)/C(=C/C=C/c2ccccc2)SC1=S (stereo not given)	10%
CCOc1cc(/C=C2\SC(=S)N(NC(=O)c3ccccc3O)C2=O)ccc1O	11.8%
O=C1NC(c2cccc(I)c2)Oc2ccccc21 (stereo not given)	-8.6%
CN1CCN(C(=O)c2ccccc2NC(=O)c2cccnc2)CC1	1.4%
C/C(=N\Nc1nnc2c(n1)[nH]c1ccccc12)c1ccc(C)o1	17.4%
Cc1ccc(C(c2ccc(C)o2)c2cc(Br)cc(Br)c2O)o1	-17.4%
CCC(CC)C1C(C#N)=C(N)Oc2n[nH]c(-c3ccccc3)c21 (stereo not given)	-5.1%
N#Cc1sc2nc(C3CC3)cc(-c3ccc(F)cc3)c2c1N	3.4%
CC(=O)c1c(C)nc2ccc(OC(F)(F)F)cc2c1-c1ccccc1	8.9%
CC(=O)c1ccc(NN=C(C#N)C#N)cc1	-10%
COc1ccc(Cl)cc1NS(=O)(=O)c1c(C)cc(C)cc1C	-4.7%
O=C(NCCO)Nc1ccc(Cc2ccc(NC(=O)NCCO)cc2)cc1	1%
CCOC(=O)c1c(NC(=O)c2ccc(C)c([N+](=O)[O-])c2)sc(C(=O)Nc2ccccc2F)c1C	-1.3%
Nc1nnc(SCC(=O)Nc2ccc([N+](=O)[O-])cc2)s1	-0.6%

Structure (SMILES)	displacement
Cc1[nH]n(-c2ccc(Cl)cc2)c(=O)c1/C=N/NC(=O)c1ccccc1[N+](=O)[O-]	2.6%
CC(=O)c1cccc(NC(=O)c2cc(S(=O)(=O)N3CCOCC3)ccc2Cl)c1	4.1%
CC1(C)CC(=O)c2cc(-c3ccccc3)n(-c3ccccc3)c2C1	2.2%
O=c1cc(C(F)(F)C(F)(F)F)c2cc3c4c(c2o1)CCCN4CCC3	66.7%
Cc1ccc(-c2csc(NC(=O)c3ccc(C)c(C)c3)n2)cc1	-5.6%
CCOC(=O)N1CCN(c2cc(N3CCCCC3)c(F)cc2[N+](=O)[O-])CC1	-5.8%
O=C(N=Nc1c(O)[nH]c(=O)[nH]c1=O)c1cncc(Br)c1	-7.9%
CCOc1ccc(C(=O)Nc2ccc(-c3cc4ccccc4oc3=O)c(C)c2)cc1Cl	2.4%
O=CN1N=C(c2ccc3ccccc3c2)CC1c1ccccc1 (stereo not given)	4.2%
C/C(=N\NC(=O)C1(C)CC1(Br)Br)c1ccc(Br)s1 (stereo not given)	-1.2%
CC(C)(O)C#Cc1ccc(C(=O)N2CCC(Cc3ccccc3)CC2)cc1	6.6%
CC(C)(C)c1csc(NC(=O)c2c(F)c(F)c(F)c(F)c2F)n1	2.4%
CCc1ccc(OCC(=O)Nc2nc(-c3ccccc3)cs2)cc1	7.6%
COc1ccc(C)cc1NC(=O)C(=O)NN=C1CCN(C)CC1	0.8%
CCOc1ccc(NC(=O)CN(c2cccc(OC)c2)S(=O)(=O)c2ccccc2)cc1	13.8%
CCOC(=O)C1=C(C)N=c2s/c(=C\c3ccc([N+](=O)[O-])o3)c(=O)n2C1c1ccccc1Cl (stereo not given)	42.7%
COc1ccc(OC)c(NC(=O)COc2c(C)cc(C)cc2C)c1	13.1%
O=C1CCCC2=C1C(c1ccco1)Nc1ccccc1N2 (stereo not given)	7.5%
Cn1c(=O)cc(NC2CCCCC2)[nH]c1=O	10.3%
COc1ccc(OCCCCS)cc1	6.3%
N#Cc1c(C(F)(F)F)cc(-c2cccs2)nc1SCC(=O)Nc1ccc(S(N)(=O)=O)cc1	-11.6%
COc1ccc(-c2cc(-c3ccccc3)n[nH]2)cc1	-4.3%
Cc1ccc2c(Cl)c(C(=O)NCc3ccncc3)sc2c1	-6.3%
CCOC(=O)/C(C#N)=N/Nc1ccc(NC(=O)c2ccc(N/N=C(\C#N)C(=O)OCC)cc2)cc1	20%
